Drawing on the supplement of paper PMC10126150, this text covers switch fluorescence ratio for 67 sequences.

In the series the test system is ATP. Kind of series: switch fluorescence ratio, 500 uM ATP over buffer (Cy3 cluster intensity, sum of 5 cycles each) (fold (ratio)); higher = stronger signal-on switching upon ATP binding; sequences stand for … in TCGTCGGCAGCGTCAGATGTGTATAAGAGACAGTTTTTTTTTTTTTTTTTTTTTTTTT…TC. The settings on record: aptamer strand: ATP DNA aptamer (quencher-CACCTGGGGGAGTATTGCGGAGGAAGG + anchor), 100 nM annealed; ATP concentration: 500 uM; one replicate. The gist of the method: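 Clusters carrying Cy3-labelled switching strands on a modified Illumina MiSeq flow-cell were annealed to 100 nM quencher-labelled ATP aptamer and imaged in selection buffer. They were imaged again after 15 min with 500 uM ATP at 22 °C, over five buffer/ATP cycles with NaOH stripping and re-annealing in between. For each cluster, the fluorescence ratio is the summed Cy3 intensity of the target cycles divided by that of the buffer cycles, averaged per switch-domain sequence. Clusters outside 100-1000 RFU were left out.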

Values marked as one replicate rest on one cluster of the flow cell; about a third of the high ones do not repeat.
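Also: ATP exposure 15 min at 22 °C before imaging.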

As for CTTTATAGAT, the switch fluorescence ratio was determined as 0.971.
For the sequence TGATTATCAG, the switch fluorescence ratio is 0.995.
Regarding CGGATTAGAC, the switch fluorescence ratio amounted to 1.04.
As for TCGCGTCATT, the switch fluorescence ratio is 0.982.
As for TGCTTGGGAG, the switch fluorescence ratio was 0.976.
Take CGTTGGTTAG: the switch fluorescence ratio came out at 1.05.
As for TAGAAGGTAC, the figure is 1.05; as for GCAGTATTTA, 1; as for ACCTGGGGGC, 1.02.
Regarding ACTTTAAGG, the switch fluorescence ratio was found to be 1.04.
CTGATTGGGT: the switch fluorescence ratio turned out to be 1.16.
In the case of CGCAGATAGT it was 1.26.
For ATTATGCCAC, the switch fluorescence ratio was 1.06.
In the case of CGCCCTGCCA it was 0.969; in that of TTGAGCTCAA, 1.02.
As to GGGAGCCCGT, the switch fluorescence ratio stood at 1.
In the case of CCGAAGAGAG, the switch fluorescence ratio is 1.55.
Regarding TTTGGCGGAT, the switch fluorescence ratio amounted to 1.01.
Take ATTACGGAGC: the switch fluorescence ratio came to 1.44.
As for TGTAGTGTCC, the figure is 1.02; as for TCGCTGCGT, 1.04; as for ATTTTGTGCA, 1.04.
As for AGAACCTGTT, the switch fluorescence ratio came to 1.03.
In the case of TCATTGCTCG it was 0.974.
For GGGTCAGGGT, the switch fluorescence ratio amounted to 1.
As for TAAGCACTA, the switch fluorescence ratio came out at 1.21.
For the sequence AGTCAGGTTT, the switch fluorescence ratio amounted to 1.02.
With AGTGAGCGAC, the switch fluorescence ratio is 1.
As for AATCCTGTGT, the switch fluorescence ratio turned out to be 0.943.
With ATTTAGAATA, the switch fluorescence ratio was 0.989.
Consider TGGTGTGAGG, for which the switch fluorescence ratio was found to be 0.963.
AATAGGACCT: the switch fluorescence ratio was determined as 1.39.
As for GTGAATAGTA, the switch fluorescence ratio was determined as 0.971.
In the case of GGGAAATGTA it was 0.983; in that of ACTAATGAGC, 0.989; in that of AAGCTCTAAC, 1.04.
As to GGCGTCATGT, the switch fluorescence ratio is 0.98.
Take TCGCCGTTGG: the switch fluorescence ratio stood at 0.992.
In the case of TAATTCATAC it was 1.27; in that of TTGGGTGCT, 1.05.
Consider CTGGTGCTTT, for which the switch fluorescence ratio came out at 1.02.
As for GCAGATAGGA, the figure is 1.04; as for GTTTTGAAGC, 1.05; as for CGCGCGGTCA, 0.973.
In the case of GTTTGTGAC it was 1.01; in that of AAAGTTTGA, 1.01.
For TCTGCAAAAA, the switch fluorescence ratio came out at 2.34.
As for TCTAATGTGT, the switch fluorescence ratio stood at 1.03.
In the case of AACGCACGTG, the switch fluorescence ratio turned out to be 1.2.
As to ATCGAGACGG, the switch fluorescence ratio came to 1.12.
As for ATGATCAGGT, the figure is 0.94; as for CCAATATTCC, 2.4; as for TGCGAGACGA, 1.14.
In the case of CGGTATCGGG it was 0.994; in that of TTCGTCCGGT, 1.21; in that of ATTTTAG, 0.988.
As for AACCCCAAAT, the figure is 1.02; as for TGCCTCTAAC, 0.973; as for TTTCACCCGT, 0.972.
As to GCTGTACCTA, the switch fluorescence ratio was 1.05.
For CTTACGGACG, the switch fluorescence ratio amounted to 1.31.
As to CCGTAAGCGG, the switch fluorescence ratio was found to be 1.22.
For GAGAAGCAGA, the switch fluorescence ratio worked out at 1.01.
Turning to GCTAATGGTT, the switch fluorescence ratio was found to be 0.985.
As to GCAGATGTCG, the switch fluorescence ratio came out at 0.931.
As for GATGGTTACG, the switch fluorescence ratio stood at 0.974.
In the case of GGTCTAGGGG it was 0.99.
